The chains are these.
B3: heterodimeric human IL-2 receptor beta/gamma Fc fusion (knob-into-hole construct) (Fc fusion)
chain 1: AVNGTSQFTCFYNSRANISCVWSQDGALQDTSCQVHAWPDRRRWNQTCELLPVSQASWACNLILGAPDSQKLTTVDIVTLRVLCREGVRWRVMAIQDFKPFENLRLMAPISLQVVHVETHRCNISWEISQASHYFERHLEFEARTLSPGHTWEEAPLLTLKQKQEWICLETLTPDTQYEFQVRVKPLQGEFTTWSPWSQPLAFRTKPAALGKDTGAQ[sequence of human IgG1 Fc with changes omitted]
chain 2: LNTTILTPNGNEDTTADFFLTTMPTDSLSVSTLPLPEVQCFVFNVEYMNCTWNSSSEPQPTNLTLHYWYKNSDNDKVQKCSHYLFSEEITSGCQLQKKEIHLYQTFVVQLQDPREPRRQATQMLKLQNLVIPWAPENLTLHKLSESQLELNWNNRFLNHCLEHLVQYRTDWDHSWTEQSVDYRHKFSLPSVDGQKRYTFRVRSRFNPLCGSAQHWSEWSHPIHWGSNTSKENPFLFALEAGAQ[sequence of human IgG1 Fc with changes omitted]
notes: also called IL-2R b/g; hu IL-2R bg

Test [1] has as its target B3. The experiment in a line: BIACORE SPR summary table, column IL-2 Receptor.
The target of test [2] is B3. The experiment in a line: BIACORE SPR, immobilized IL-2R, construct as analyte; apparent KD.
In test [3] the target is T1, Extra Domain B of fibronectin (EDB) (UniProt P02751 1266-1356).
T1 construct: domain: Extra Domain B; construct not described; also called fibronectin Ectodomain-B
The experiment in a line: BIACORE SPR, EDB immobilized on the chip, analyte at 1.56, 3.125 and 6.25 nM.

Test [4] addresses T2, commercially available IL-2 (Proleukin) (human, UniProt P60568).
T2 construct: also called unconjugated IL-2
As to the kind of experiment: BIACORE SPR summary table, column IL-2 Receptor.

Test [5] addresses T2, commercially available IL-2 (Proleukin). As to the kind of experiment: BIACORE SPR, immobilized IL-2 receptor (beta Hole-gamma Knob), IL-2 as analyte.
In test [6] the target is T3, A1 domain of tenascin (TNC-A1), immobilized domain of Example 1 (UniProt P24821 1072-1162, limits assumed).
T3 construct: domain: A1; also called TNC-A1 domain
T3 sequence (looked up): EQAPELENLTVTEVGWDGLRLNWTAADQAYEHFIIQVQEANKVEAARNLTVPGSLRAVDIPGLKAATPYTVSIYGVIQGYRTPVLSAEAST
As to the kind of experiment: BIACORE SPR summary table, column Tenascin C domain A1.

Test [7] concerns the target B3. The experiment in a line: BIACORE SPR, immobilized IL-2R, construct as analyte; apparent KD. This is another data set of the same source.
For test [8], the target named is T3, A1 domain of tenascin (TNC-A1), …. As to the kind of experiment: BIACORE SPR, immobilized TNC domain A1, construct as analyte; apparent KD.
In test [9] the target is T4, human Melanoma Chondroitin Sulfate Proteoglycan (MCSP) on Colo38 melanoma cells (human, UniProt Q6UVK1 30-2322).
T4 construct: whole, on cells
The experiment in a line: flow cytometry on MCSP-expressing Colo38 melanoma cells, detection with FITC goat anti-human F(ab')2. From the text:
Briefly, cells were harvested, counted and checked for viability.

Test [10] deals with B3. The experiment in a line: BIACORE SPR, immobilized IL-2R, construct as analyte; apparent KD. The source holds these as a separate data set.
Test [11] deals with T1, Extra Domain B of fibronectin (EDB). As to the kind of experiment: BIACORE SPR, EDB immobilized on the chip, analyte at 1.56, 3.125 and 6.25 nM. The source holds these as a separate data set.

Read-outs that look alike come from different tables or passages of the source.

T1 sequence (P02751 1266-1356 limits assumed): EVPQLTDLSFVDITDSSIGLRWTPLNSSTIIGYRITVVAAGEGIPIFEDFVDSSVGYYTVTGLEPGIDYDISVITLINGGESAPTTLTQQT
T4 sequence (Q6UVK1 30-2322): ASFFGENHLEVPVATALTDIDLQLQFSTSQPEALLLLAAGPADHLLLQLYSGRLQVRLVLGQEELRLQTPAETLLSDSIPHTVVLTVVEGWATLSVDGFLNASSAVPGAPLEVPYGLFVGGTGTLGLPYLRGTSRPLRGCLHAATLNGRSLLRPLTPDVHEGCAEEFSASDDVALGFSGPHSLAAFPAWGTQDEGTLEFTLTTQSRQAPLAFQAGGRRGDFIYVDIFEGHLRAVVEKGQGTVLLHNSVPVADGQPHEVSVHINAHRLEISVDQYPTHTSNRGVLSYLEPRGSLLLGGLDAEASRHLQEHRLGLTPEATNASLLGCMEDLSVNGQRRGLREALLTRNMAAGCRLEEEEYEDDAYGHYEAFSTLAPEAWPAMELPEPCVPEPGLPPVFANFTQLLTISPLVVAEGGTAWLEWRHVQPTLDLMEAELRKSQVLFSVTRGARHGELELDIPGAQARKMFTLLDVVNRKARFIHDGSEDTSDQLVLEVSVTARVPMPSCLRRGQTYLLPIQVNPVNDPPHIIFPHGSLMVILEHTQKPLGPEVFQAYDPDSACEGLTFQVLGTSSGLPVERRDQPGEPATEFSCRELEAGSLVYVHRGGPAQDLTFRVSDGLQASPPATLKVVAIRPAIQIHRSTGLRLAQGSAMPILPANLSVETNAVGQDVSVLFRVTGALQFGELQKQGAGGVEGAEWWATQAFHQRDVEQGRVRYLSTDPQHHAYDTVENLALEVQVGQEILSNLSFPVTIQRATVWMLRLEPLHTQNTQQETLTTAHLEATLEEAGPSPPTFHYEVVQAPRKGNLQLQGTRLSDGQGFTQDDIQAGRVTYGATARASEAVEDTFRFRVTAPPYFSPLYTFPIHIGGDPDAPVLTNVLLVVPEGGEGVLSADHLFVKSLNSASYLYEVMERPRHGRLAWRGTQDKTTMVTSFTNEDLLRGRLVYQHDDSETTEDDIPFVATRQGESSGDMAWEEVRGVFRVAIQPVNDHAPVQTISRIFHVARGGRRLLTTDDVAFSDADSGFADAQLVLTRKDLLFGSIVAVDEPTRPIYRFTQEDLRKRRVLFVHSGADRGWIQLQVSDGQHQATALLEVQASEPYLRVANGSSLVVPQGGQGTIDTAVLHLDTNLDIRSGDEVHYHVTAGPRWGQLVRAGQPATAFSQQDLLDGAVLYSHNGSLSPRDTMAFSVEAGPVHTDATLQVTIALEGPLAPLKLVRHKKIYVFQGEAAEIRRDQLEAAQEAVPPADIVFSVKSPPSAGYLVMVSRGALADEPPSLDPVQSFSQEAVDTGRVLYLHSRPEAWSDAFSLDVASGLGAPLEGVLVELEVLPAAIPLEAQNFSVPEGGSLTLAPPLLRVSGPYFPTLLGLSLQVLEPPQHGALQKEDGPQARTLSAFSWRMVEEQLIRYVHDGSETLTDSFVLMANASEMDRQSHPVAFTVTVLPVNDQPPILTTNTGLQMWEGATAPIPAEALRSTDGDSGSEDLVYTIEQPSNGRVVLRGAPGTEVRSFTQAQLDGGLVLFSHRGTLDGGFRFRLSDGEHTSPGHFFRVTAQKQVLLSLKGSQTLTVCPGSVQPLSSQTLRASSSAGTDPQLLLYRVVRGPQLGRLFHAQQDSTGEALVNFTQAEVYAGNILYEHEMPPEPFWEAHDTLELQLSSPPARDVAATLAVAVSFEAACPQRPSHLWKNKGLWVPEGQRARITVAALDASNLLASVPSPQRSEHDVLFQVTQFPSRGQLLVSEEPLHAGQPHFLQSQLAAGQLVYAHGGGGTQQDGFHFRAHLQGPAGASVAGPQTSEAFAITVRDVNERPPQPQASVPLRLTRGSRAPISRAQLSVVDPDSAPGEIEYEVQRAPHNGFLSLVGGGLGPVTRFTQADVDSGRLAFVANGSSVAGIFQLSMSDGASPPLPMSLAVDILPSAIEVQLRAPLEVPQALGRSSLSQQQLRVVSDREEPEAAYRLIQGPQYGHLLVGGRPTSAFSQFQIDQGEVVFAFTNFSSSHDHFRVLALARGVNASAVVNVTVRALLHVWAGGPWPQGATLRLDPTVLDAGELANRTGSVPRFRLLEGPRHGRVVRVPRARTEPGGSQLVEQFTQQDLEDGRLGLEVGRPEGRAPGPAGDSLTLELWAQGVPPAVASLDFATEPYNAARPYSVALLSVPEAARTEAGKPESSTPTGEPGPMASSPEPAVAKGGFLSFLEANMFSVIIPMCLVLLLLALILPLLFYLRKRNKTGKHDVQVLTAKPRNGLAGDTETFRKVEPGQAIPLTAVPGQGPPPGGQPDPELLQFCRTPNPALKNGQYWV

B1: F16 Fab-IL2-Fab immunoconjugate (other)
chain: EVQLLESGGGLVQPGGSLRLSCAASGFTFSRYGMSWVRQAPGKGLEWVSAISGSGGSTYYADSVKGRFTISRDNSKNTLYLQMNSLRAEDTAVYYCAKAHNAFDYWGQGTLVTVSSASTKGPSVFPLAPSSKSTSGGTAALGCLVKDYFPEPVTVSWNSGALTSGVHTFPAVLQSSGLYSLSSVVTVPSSSLGTQTYICNVNHKPSNTKVDKKVEPKSCDSSSSGSSSSGSSSSG[sequence of about 150 residues omitted]SGGGGSGGGGSGGGGEVQLLESGGGLVQPGGSLRLSCAASGFTFSRYGMSWVRQAPGKGLEWVSAISGSGGSTYYADSVKGRFTISRDNSKNTLYLQMNSLRAEDTAVYYCAKAHNAFDYWGQGTLVTVSSASTKGPSVFPLAPSSKSTSGGTAALGCLVKDYFPEPVTVSWNSGALTSGVHTFPAVLQSSGLYSLSSVVTVPSSSLGTQTYICNVNHKPSNTKVDKKVEPKSCD
light: SSELTQDPAVSVALGQTVRITCQGDSLRSYYASWYQQKPGQAPVLVIYGKNNRPSGIPDRFSGSSSGNTASLTITGAQAEDEADYYCNSSVYTMPPVVFGGGTKLTVLGQPKAAPSVTLFPPSSEELQANKATLVCLISDFYPGAVTVAWKADSSPVKAGVETTTPSKQSNNKYAASSYLSLTPEQWKSHRSYSCQVTHEGSTVEKTVAPTECS
notes: also called Fab-IL2-Fab (F16)
As for B1, the Kd in [1] and in [2] was 7.4 nM in each case.

B2: L19 Fab-IL2-Fab immunoconjugate (other)
chain: EVQLLESGGGLVQPGGSLRLSCAASGFTFSSFSMSWVRQAPGKGLEWVSSISGSSGTTYYADSVKGRFTISRDNSKNTLYLQMNSLRAEDTAVYYCAKPFPYFDYWGQGTLVTVSSASTKGPSVFPLAPSSKSTSGGTAALGCLVKDYFPEPVTVSWNSGALTSGVHTFPAVLQSSGLYSLSSVVTVPSSSLGTQTYICNVNHKPSNTKVDKKVEPKSCDSGGGGSGGGGSGGGG[sequence of about 150 residues omitted]SGGGGSGGGGSGGGGEVQLLESGGGLVQPGGSLRLSCAASGFTFSSFSMSWVRQAPGKGLEWVSSISGSSGTTYYADSVKGRFTISRDNSKNTLYLQMNSLRAEDTAVYYCAKPFPYFDYWGQGTLVTVSSASTKGPSVFPLAPSSKSTSGGTAALGCLVKDYFPEPVTVSWNSGALTSGVHTFPAVLQSSGLYSLSSVVTVPSSSLGTQTYICNVNHKPSNTKVDKKVEPKSCD
light: EIVLTQSPGTLSLSPGERATLSCRASQSVSSSYLAWYQQKPGQAPRLLIYYASSRATGIPDRFSGSGSGTDFTLTISRLEPEDFAVYYCQQTGRIPPTFGQGTKVEIKRTVAAPSVFIFPPSDEQLKSGTASVVCLLNNFYPREAKVQWKVDNALQSGNSQESVTEQDSKDSTYSLSSTLTLSKADYEKHKVYACEVTHQGLSSPVTKSFNRGEC
notes: Immunoconjugate: two Fabs and one IL-2; also called Fab-IL2-Fab fusion construct; Fab-L19
In the case of B2, in test [3], the Kd was 0.312 nM, the koff is 0.000904 s⁻¹ and the kon stood at 2.89e+06 M⁻¹ s⁻¹.

B3 had a Kd in [4] of 0.495 nM. In test [5], this molecule came in with a Kd of 0.495 nM, a koff of 0.000369 s⁻¹ and a kon of 745000 M⁻¹ s⁻¹.

B4: F16 scFv-IL2-scFv immunoconjugate (other)
chain: EVQLLESGGGLVQPGGSLRLSCAASGFTFSRYGMSWVRQAPGKGLEWVSAISGSGGSTYYADSVKGRFTISRDNSKNTLYLQMNSLRAEDTAVYYCAKAHNAFDYWGQGTLVTVSRGGGGSGGGGSGGGGSSELTQDPAVSVALGQTVRITCQGDSLRSYYASWYQQKPGQAPVLVIYGKNNRPSGIPDRFSGSSSGNTASLTITGAQAEDEADYYCNSSVYTMPPVVFGGGTKLTVLGSSSSGSSSSGSSSSG[sequence of about 150 residues omitted]SGGGGSGGGGSGGGGSSELTQDPAVSVALGQTVRITCQGDSLRSYYASWYQQKPGQAPVLVIYGKNNRPSGIPDRFSGSSSGNTASLTITGAQAEDEADYYCNSSVYTMPPVVFGGGTKLTVLGSGGGSGGGSGGGSGSEVQLLESGGGLVQPGGSLRLSCAASGFTFSRYGMSWVRQAPGKGLEWVSAISGSGGSTYYADSVKGRFTISRDNSKNTLYLQMNSLRAEDTAVYYCAKAHNAFDYWGQGTLVTVS
notes: also called scFv-IL2-scFv (F16, protein)
With B4, the Kd turned out to be 2.5 nM in test [1], 11.5 nM in test [6], 2.5 nM in test [7] and 11.5 nM in test [8].

B5: MCSP-targeted MHLG1 KV9 Fab-IL2-Fab immunoconjugate (other)
chain: EVQLVESGGGLVKPGGSLRLSCAASGFTFSNYWMNWVRQAPGKGLEWVAEIRLKSNNFGRYYAASVKGRFTISRDDSKNTLYLQMNSLKTEDTAVYYCTTYGNYVGHYFDHWGQGTTVTVSSASTKGPSVFPLAPSSKSTSGGTAALGCLVKDYFPEPVTVSWNSGALTSGVHTFPAVLQSSGLYSLSSVVTVPSSSLGTQTYICNVNHKPSNTKVDKKVEPKSCDSGGGGSGGGGSGGGG[sequence of about 150 residues omitted]SGGGGSGGGGSGGGGEVQLVESGGGLVKPGGSLRLSCAASGFTFSNYWMNWVRQAPGKGLEWVAEIRLKSNNFGRYYAASVKGRFTISRDDSKNTLYLQMNSLKTEDTAVYYCTTYGNYVGHYFDHWGQGTTVTVSSASTKGPSVFPLAPSSKSTSGGTAALGCLVKDYFPEPVTVSWNSGALTSGVHTFPAVLQSSGLYSLSSVVTVPSSSLGTQTYICNVNHKPSNTKVDKKVEPKSCD
light: DIQLTQSPSFLSASVGDRVTITCKASQNVDTNVAWYQQKPGQAPRPLIYSASYRYTGVPSRFSGSGSGTEFTLTISSLQPEDFATYYCQQYNSYPLTFGGGTKVEIKRTVAAPSVFIFPPSDEQLKSGTASVVCLLNNFYPREAKVQWKVDNALQSGNSQESVTEQDSKDSTYSLSSTLTLSKADYEKHKVYACEVTHQGLSSPVTKSFNRGEC
notes: Two Fabs and one IL-2; also called MHLG1 Fab-IL2-Fab
As for B5, in test [9], the “EC50 (read off the curve)” value is ~2 nM.

B6: F16-diabody-IL2 protein (other)
scFv: EVQLLESGGGLVQPGGSLRLSCAASGFTFSRYGMSWVRQAPGKGLEWVSAISGSGGSTYYADSVKGRFTISRDNSKNTLYLQMNSLRAEDTAVYYCAKAHNAFDYWGQGTLVTVSSASGGSSELTQDPAVSVALGQTVRITCQGDSLRSYYASWYQQKPGQAPVLVIYGKNNRPSGIPDRFSGSSSGNTASLTITGAQAEDEADYYCNSSVYTMPPVVFGGGTKLTVLGSSSSGSSSSGSSSSG[sequence of about 150 residues omitted]
notes: Bivalent for the antigen and for IL-2; also called F16 dia IL2; the diabody
Regarding B6, the Kd in test [1] and in test [10] was 0.81 nM throughout.

B7: L19 diabody-IL2 fusion protein, 8 amino acid linker (other)
scFv: EVQLLESGGGLVQPGGSLRLSCAASGFTFSSFSMSWVRQAPGKGLEWVSSISGSSGTTYYADSVKGRFTISRDNSKNTLYLQMNSLRAEDTAVYYCAKPFPYFDYWGQGTLVTVSSSGGSGGASEIVLTQSPGTLSLSPGERATLSCRASQSVSSSYLAWYQQKPGQAPRLLIYYASSRATGIPDRFSGSGSGTDFTLTISRLEPEDFAVYYCQQTGRIPPTFGQGTKVEISVLSSSSGSSSSGSSSSG[sequence of about 150 residues omitted]
In test [11], B7 yielded a Kd of 0.267 nM, a koff of 0.000688 s⁻¹ and an on-rate constant (kon) of 2.58e+06 M⁻¹ s⁻¹.

The values above are taken from patent US20110064751A1 (Hoffmann-La Roche, published 2011).
